Data from patent US20210179693A1 (Xencor, published 2021).
Each block holds one binder with its values, some of them ahead of it.

Target: T1, human FcRn (His-tagged alpha chain with beta 2 microglobulin) (human, UniProt P55899 in part; P61769 in part, limits assumed)
T1 construct: also called hFcRn; not shown: His tag
Assay: Biacore, human FcRn on chip, pH 6.0

fold FcRn binding relative to WT IgG1: 3.4 fold
B1: anti-VEGF IgG1 P257L (antibody)
heavy: EVQLVESGGGLVQPGGSLRLSCAASGYTFTNYGMNWVRQAPGKGLEWVGWINTYTGEPTYAADFKRRFTFSLDTSKSTAYLQMNSLRAEDTAVYYCAKYPHYYGSSHWYFDVWGQGTLVTVSSASTKGPSVFPLAPSSKSTSGGTAALGCLVKDYFPEPVTVSWNSGALTSGVHTFPAVLQSSGLYSLSSVVTVPSSSLGTQTYICNVNHKPSNTKVDKKV[human IgG1 Fc with P257L (EU numbers) omitted here]
light: DIQMTQSPSSLSASVGDRVTITCSASQDISNYLNWYQQKPGKAPKVLIYFTSSLHSGVPSRFSGSGSGTDFTLTISSLQPEDFATYYCQQYSTVPWTFGQGTKVEIKRTVAAPSVFIFPPSDEQLKSGTASVVCLLNNFYPREAKVQWKVDNALQSGNSQESVTEQDSKDSTYSLSSTLTLSKADYEKHKVYACEVTHQGLSSPVTKSFNRGEC

fold FcRn binding relative to WT IgG1: 3.5 fold
B2: anti-VEGF IgG1 P257N (antibody)
heavy: EVQLVESGGGLVQPGGSLRLSCAASGYTFTNYGMNWVRQAPGKGLEWVGWINTYTGEPTYAADFKRRFTFSLDTSKSTAYLQMNSLRAEDTAVYYCAKYPHYYGSSHWYFDVWGQGTLVTVSSASTKGPSVFPLAPSSKSTSGGTAALGCLVKDYFPEPVTVSWNSGALTSGVHTFPAVLQSSGLYSLSSVVTVPSSSLGTQTYICNVNHKPSNTKVDKKV[human IgG1 Fc with P257N (EU numbers) omitted here]
light: B1 light
